Measurements taken from paper PMC4336329 (PLoS ONE, 2015).
Screen size: about 310,000 compounds; about 14,000 (4.5%) showed an effect of 50% or more. The effect is printed as a negative number. Some of the results follow.

Target: human ether-à-go-go-related gene (hERG) potassium channel (human, UniProt Q12809)
Assay: primary screen, population patch clamp on CHO cells stably expressing hERG
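Note: peak tail current of the secondary pulse compared with the same well before compound.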

human ether-à-go-go-related gene (hERG) potassium channel, sequence (Q12809 whole entry, looked up): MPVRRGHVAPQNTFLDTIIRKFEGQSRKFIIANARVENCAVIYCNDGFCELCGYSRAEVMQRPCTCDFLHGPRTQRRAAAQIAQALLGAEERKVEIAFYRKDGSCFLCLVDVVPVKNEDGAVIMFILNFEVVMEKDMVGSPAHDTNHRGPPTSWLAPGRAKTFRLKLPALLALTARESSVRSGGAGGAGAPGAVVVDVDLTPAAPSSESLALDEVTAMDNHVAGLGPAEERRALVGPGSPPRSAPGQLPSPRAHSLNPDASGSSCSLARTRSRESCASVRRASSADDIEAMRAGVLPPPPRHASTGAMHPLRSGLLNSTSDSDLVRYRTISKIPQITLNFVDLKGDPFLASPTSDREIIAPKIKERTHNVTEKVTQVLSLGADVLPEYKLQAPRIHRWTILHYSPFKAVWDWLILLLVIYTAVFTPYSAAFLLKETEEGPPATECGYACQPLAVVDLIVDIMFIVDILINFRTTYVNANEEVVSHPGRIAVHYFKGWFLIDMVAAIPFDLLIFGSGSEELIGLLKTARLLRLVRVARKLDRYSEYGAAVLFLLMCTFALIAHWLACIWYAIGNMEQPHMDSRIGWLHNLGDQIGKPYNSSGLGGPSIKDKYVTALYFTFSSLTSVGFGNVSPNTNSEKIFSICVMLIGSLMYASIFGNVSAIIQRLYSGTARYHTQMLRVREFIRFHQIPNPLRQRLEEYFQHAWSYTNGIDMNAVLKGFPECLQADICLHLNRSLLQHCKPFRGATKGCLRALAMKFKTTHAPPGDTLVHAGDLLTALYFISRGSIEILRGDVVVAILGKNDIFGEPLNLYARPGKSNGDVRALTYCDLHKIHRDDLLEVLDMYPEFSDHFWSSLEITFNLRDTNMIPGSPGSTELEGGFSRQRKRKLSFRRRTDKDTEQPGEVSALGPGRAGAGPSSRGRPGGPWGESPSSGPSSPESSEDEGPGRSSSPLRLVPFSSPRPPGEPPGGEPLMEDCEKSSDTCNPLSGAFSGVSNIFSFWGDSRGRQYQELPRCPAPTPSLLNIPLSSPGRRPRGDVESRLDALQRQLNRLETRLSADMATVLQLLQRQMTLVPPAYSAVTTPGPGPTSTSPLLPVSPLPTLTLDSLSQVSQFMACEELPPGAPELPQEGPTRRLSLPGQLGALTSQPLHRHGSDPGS

| SMILES | hERG current change (%, negative = inhibition) at 10uM [%] |
| --- | --- |
| Cc1cccn2c(=O)c(C=O)c(N3CC(C)OC(C)C3)nc12 (stereo not shown) | 28.3 |
| Fc1ccccc1N1CCN(CCCc2ccccc2)CC1 | -64.7 |
| CC1CCCCN1CCNC(=O)Cn1nc(-c2ccccc2)ccc1=O (stereo not shown) | 3.4 |
| CCOC(=O)c1cc2c(ccn2C)n1CC(=O)N(C)C | 9.18 |
| CCOC(=O)CN1CC23C=CC(O2)C(C(=O)NCc2ccc(F)cc2)C3C1=O (stereo not shown) | -0.2 |
| CCOc1ccc(-n2c(Cc3ccccc3)nnc2SCc2c(C)noc2C)cc1 | -74.1 |
| O=C(NC1CCCC1)C(c1ccc(F)cc1)N(Cc1ccc(Cl)cc1)C(=O)CCl (stereo not shown) | -14.2 |
| CC(C)c1nnc(NC(=O)Cn2nc(-c3ccc4c(c3)OCCO4)ccc2=O)s1 | 4.27 |
| O=C(CSc1nc2ccccc2c(=O)n1-c1ccc(F)cc1)Nc1ccc(N2CCOCC2)cc1 | -6.58 |
| CC(C)(C)N1CC(c2nc3ccccc3n2Cc2ccccc2)CC1=O (stereo not shown) | -47.2 |
| CC(C)CC(CC(C)C)=NNC(=O)c1ccc(CSc2nncn2C)cc1 | 13.7 |
| CC(=O)n1c2ccccc2c2nc(NC(C)C)sc21 | -3.77 |
| Cc1ccc(C2Nc3ccccc3NC3=C2C(=O)CC(C)(C)C3)c(O)c1 (stereo not shown) | 3.15 |
| CCN1CCN(S(=O)(=O)c2ccc(Cl)c(C(=O)Nc3ccccc3N3CCOCC3)c2)CC1 | 11.8 |
| O=C(Cc1ccccc1)N1CCN(S(=O)(=O)c2ccc([N+](=O)[O-])cc2)CC1 | -64 |
| O=C1c2ccccc2NC(c2cccc([N+](=O)[O-])c2)N1CCc1ccccc1 (stereo not shown) | -31.3 |
| Cc1cc(N2CCN(S(=O)(=O)c3ccc(C)c(C)c3)CC2)c2ccccc2n1 | -64.6 |
| O=C(NN=C1c2ccccc2-c2ccccc21)c1ccccc1Br | -4.41 |
| Cc1cc(NC(=O)CN2CCN(S(=O)(=O)c3ccc(Cl)cc3)CC2)no1 | -15.4 |
| Cc1ccc(C(=O)Oc2cc(N)n(S(=O)(=O)c3ccc(F)cc3)n2)cc1 | 19.9 |
| CCOc1ccc(OCC)c(NC(=O)C2CCN(S(=O)(=O)c3cnc[nH]3)CC2)c1 | -9.97 |
| O=C(Nc1nnc(-c2ccccc2F)s1)c1ccccc1F | -1.93 |

| SMILES | hERG current change (%, negative = inhibition) at 10uM [%] |
| --- | --- |
| COc1ccc(-c2ccc(C#N)c(SCC(=O)NCc3ccco3)n2)cc1OC | -14.3 |
| CCc1ccc(OCC(=O)Nc2ccc(N3CCN(C(=O)c4ccccc4)CC3)cc2)cc1 | -10.1 |
| CC(=O)N1c2ccc(S(=O)(=O)N3CCCC3)cc2CC1C(=O)NC(C)C (stereo not shown) | 14.4 |
| O=C1CCCC(O)=C1N=Nc1ccc(S(=O)(=O)N2CCOCC2)cc1 | 2.06 |
| COc1cc(NS(=O)(=O)c2ccc(NC(=S)NC(=O)c3ccccc3)cc2)nc(OC)n1 | -6.97 |
| Cc1cc(=O)n2nc(N3CCCC3C(=O)Nc3ccc(C(C)C)cc3)sc2n1 (stereo not shown) | -41.3 |
| COc1ccc(CNC(=O)COC(=O)/C=C/c2cccc(Br)c2)cc1 | 18.9 |
| CCCCCOC(=O)c1cc(=O)[nH]c2ccccc12 | 4.7 |
| CCCCC(=O)c1c(O)c2ccccc2oc1=O | 20.5 |
| O=C(OCC#CCSc1nnc(-c2cccc3ccccc23)o1)c1ccco1 | -2.9 |
| CCOC(=O)CCCNC(=O)COC(=O)c1cc(Br)c(Br)s1 | 3.74 |
| O=C(CC1Nc2ccccc2NC1=O)Nc1cc(Cl)cc(Cl)c1 (stereo not shown) | 5.99 |
| Cc1ccc(CO/N=C/c2c(O)cc(C)oc2=O)cc1 | 30.9 |
| Cc1cc(C)c(S(C)(=O)=O)c(Oc2ccccc2C)n1 | 18.6 |
| O=C1c2cccc3cccc(c23)C(=O)N1CCN1CCN(CC(O)COc2ccccc2)CC1 (stereo not shown) | -60 |
| NC(=O)c1nsc(C(=O)N(c2ccccc2)C(C(=O)NC2CCCC2)c2ccc3ncccc3c2)c1N (stereo not shown) | 14.9 |
| Cc1cc(C(=O)Nc2c(F)c(F)c(F)c(F)c2F)n(-c2ccccc2)n1 | -59.1 |
| CCC(C(=O)OC)n1cnc2c(nnn2-c2ccc(OC)cc2)c1=O (stereo not shown) | -6.48 |
| CCN(CC)c1ccc(NC(=O)C2=CCN(S(=O)(=O)c3ccc(F)cc3)CC2)c(C)c1 | -6.97 |
| Cc1nn(-c2ccccc2)c(Cl)c1C1C(C#N)=C(N)OC2=C1C(=O)CCC2 (stereo not shown) | -9.97 |
| O=C(NCCCN1CCOCC1)c1sc2ccccc2c1Cl | -9.81 |
| O=C(CN(C(=O)CNS(=O)(=O)c1ccccc1)c1ccc(F)cc1)NCc1ccco1 | 11 |

| SMILES | hERG current change (%, negative = inhibition) at 10uM [%] |
| --- | --- |
| CC(=O)Nc1ccc2nc3c(=O)n(C)c(=O)n(C)c3nc2c1 | 5.46 |
| CCN(CC)S(=O)(=O)c1ccc2[nH]c(=O)cc(C(=O)Nc3ccccc3N3CCOCC3)c2c1 | -18.9 |
| CC(C)N(C)CCOC(=O)C1COc2ccccc2O1.Cl (stereo not shown) | 13.9 |
| COc1ccccc1N1CCN(C(=O)c2ccoc2C)CC1 | 13.2 |
| CCNC(=S)N1CCN(CC)CC1.O=C(O)C(=O)O | -5.33 |
| COc1ccc(OC)c(S(=O)(=O)NCc2ccccc2)c1 | -17.3 |
| Cc1ccc(OCC(=O)N2CCCc3ccccc32)cc1 | -13.6 |
| COc1ccc(N2CCN(C(=O)C3CCN(S(=O)(=O)c4ccc5c(c4)oc(=O)n5C)CC3)CC2)cc1 | 2.75 |
| Cn1c(CSc2ccccc2)c(C#N)c2ccccc21 | -5.9 |
| COc1ccccc1N1CCN(Cc2cc(=O)n3ccsc3n2)CC1 | 7.83 |
| Nc1cccc(Oc2ccc3c(c2)C(=O)N(CC2CCCO2)C3=O)c1 (stereo not shown) | 1.72 |
| Cc1c(Cl)cccc1NC(=S)NCC(C)C | 12.3 |
| O=C(c1ccc2ccccc2n1)N(CCO)Cc1ccccc1 | 13.5 |
| O=C(N/N=C/c1cccc(F)c1)c1csc2c1CCCC2 | -30 |
| COc1ccc(Cl)cc1NC(=O)Nc1cccc([N+](=O)[O-])c1C | 15.5 |
| Cc1ccc(NC(=O)NCc2cccnc2)cc1Cl | 4.73 |
| Cc1cc(C)n(CNc2nc(C(F)(F)F)cs2)n1 | 6.5 |
| N#Cc1c(-c2ccccc2Cl)cc(-c2ccccc2)nc1Br | 28.4 |
| CCCCN(C)C(=O)c1nc2ccccn2c1CN1CCN(C(=O)c2cccs2)CC1 | -51.8 |
| Cc1nn(-c2ccc(F)cc2)c(Cl)c1C(=O)N(C)CC(=O)Nc1cccc(F)c1 | -15.9 |
| Cc1cc(=O)oc(C)c1C(=O)N[C@@H]1CCCCNC1=O | 7.72 |
| Cc1nc(-c2cccc(NC(=O)c3cccc(S(=O)(=O)N4CCCC4)c3)c2)cs1 | -18.7 |

| SMILES | hERG current change (%, negative = inhibition) at 10uM [%] |
| --- | --- |
| Cc1[nH]c2ccccc2c1SCC(=O)NNC(=O)Nc1ccc(OC(F)(F)F)cc1 | 8.03 |
| COc1ccc(C2(C)CC(C)(C)Nc3ccccc32)cc1 (stereo not shown) | 13.8 |
| C/C(=N\NC(=O)c1ccc(N)cc1)C1CC1 | 8.16 |
| CC1(C)NC(=O)N(CCSc2ccc(Cl)cc2)C1=O | 8.33 |
| C=CCNC(=S)Nc1ccc(Cl)cc1F | 18.6 |
| Cc1cc(C)n(S(=O)(=O)c2ccc(C)c(C)c2)n1 | 19.7 |
| O=P(Cc1ccncc1)(c1ccccc1)c1ccccc1 | -5.14 |
| Cc1csc(SCC(=O)Nc2nncs2)n1 | 3.68 |
| CCC1(O)CC(C(=O)OC)=NN1C(=O)c1ccccc1 (stereo not shown) | 7.94 |
| COc1ccc(NC(=O)c2ccco2)cc1S(=O)(=O)N1CCCCC1 | -46 |
| COc1ccc(CCn2c(C)cc(C(=O)COC(=O)c3cnc(C)cn3)c2C)cc1 | -29 |
| COc1ccccc1N1CCN(S(=O)(=O)Cc2ccccc2Cl)CC1 | -2.74 |
| CCOC(=O)C1(Cc2ccccc2)CCN(Cc2nccn2CC)CC1 | -20 |
| COc1ccccc1N1CCN(c2ccc(N3C(=O)CCC3=O)cc2[N+](=O)[O-])CC1 | 23.5 |
| CC(C)=C(NC(=O)c1ccccc1)C(=O)N1CCOCC1 | 1.45 |
| O=C(COc1ccc(/C=N/NC(=O)c2ccc(O)cc2)cc1)Nc1ccc([N+](=O)[O-])cc1 | 8.14 |
| COc1ccc(-c2cc(C(=O)NCCCn3ccnc3)c3ccccc3n2)c(OC)c1 | -32 |
| COc1cc(NC(=O)c2cccs2)c(OC)cc1NC(=O)CCC(=O)Nc1cccc2ncccc12.Cl | -9.27 |
| C/C(=N/NC(=O)c1cccs1)c1ccc(N2CCOCC2)cc1 | 4.72 |
| COC(=O)c1sc(C(F)(F)F)c(-c2ccccc2)c1S(=O)(=O)NC(C)(C)C | 1.82 |
| CC1=C(C(=O)OC(C)C)C(c2coc3ccccc3c2=O)C2=C(CCCC2=O)N1 (stereo not shown) | -0.803 |
| Cc1ccc(/C=N/NC(=O)Cn2nc(C)c([N+](=O)[O-])c2C)o1 | 9.12 |
